Results reported in PubChem BioAssay (NCATS).
The shares of active, inactive and inconclusive entries below differ from those in the screen. For part of these data: Potencies of inconclusive entries are left out as doubtful fits. The source made the active and inactive calls. Calls come from the whole dose curve; as a rule, active = well fitted curve in the direction sought with a large enough effect; inconclusive = small, poorly fitted or top-dose-only effect, or another doubt; inactive = no such curve, though single readings can be large; an effect the other way counts as inactive or inconclusive.

What was measured:
[1] = system: Zika virus NS2B-NS3 protease (linked construct); test: Primary screen NINDS Rhodamine qHTS for Zika virus inhibitors (AID 1347160); note: potency is the fitted concentration of half-maximal effect; nearly all actives have a fitted effect of over 55% in size
Method in brief: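 Rhodamine110-peptide cleavage (1.5 µM substrate) by 25 nM linked NS2B-NS3 enzyme at pH 8.0 (Tris, Tween 20), after 15 min RT preincubation with compounds; 15-min fluorescence change normalized to controls and Hill-fitted.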

[2] = HPAF-II 18hr Apoptosis Induction qHTS against the NCATS CANVASS Library (AID 1347360)
Method in brief: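 HPAF-II cells at 500/well were exposed for 18 h at 37 C to an 11-point compound series. Caspase-3/7 activity was read by Caspase-Glo luminescence after 15 min at RT.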

[3] = MCF7 Cancer Cell Toxicity qHTS against the NCATS CANVASS Library (AID 1347369); settings: activity change, negative = cytotoxicity: at 46 µM (top of the series)
Method in brief: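 MCF7 cells (500/well) were exposed 72 h at 37 °C to compounds in an 11-point series. Viability was read as ATP content by CellTiterGlo luminescence.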

[4] = qHTS for Antimalaria activity screened against the NCATS CANVASS Library (AID 1347380); note: nearly all actives have a fitted effect of over 40% in size; note: potency is the fitted concentration of half-maximal effect;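 for activity change, negative = inhibition: Plasmodium falciparum strain Dd2 asexual parasites grown in red blood cells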
Method in brief: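 SYBR Green fluorescence at 485/535 nm was read 18 hr after lysis. This followed a 72 hr incubation at 37C in 5% O2, 5% CO2 of Dd2-infected erythrocytes (0.3% parasitemia, 2.5% final hematocrit) with compounds titrated over 11 concentrations.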

[5] = Secretion counterscreen for inhibitors of the SERCaMP assay screened against the NCATS CANVASS Library (AID 1347390); settings: SH-SY5Y constitutive GLuc secretion, luminescence, 20 h; activity change, negative = inhibition: at 76.6 µM (top of the series);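 note: light from luciferase secreted into medium read as a measure of general secretion; potency is the fitted concentration of half-maximal effect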
Method in brief: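 SH-SY5Y cells with constitutively secreted GLuc reporter, 1000 cells/well, treated 20 h at 37C with compounds at 0.001 - 77 uM final; secreted luciferase read as luminescence after coelenterazine; Brefeldin A as positive control.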

[6] = HEK-293 Cancer Cell Toxicity qHTS against the NCATS CANVASS Library (AID 1347355); note: potency is the fitted concentration of half-maximal effect; nearly all actives have a fitted effect of over 65% in size
Method in brief: (§1)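 Toxicity was measured as CellTiter-Glo luminescence after 72 h exposure to an 11-point compound series. Compound was added to 1000 cells/well 4 h after seeding.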

[7] = system: NAD(P)H diaphorase (Clostridium kluyveri); test: Diaphorse counterscreen qHTS: Assay Interference Panel against the NCATS CANVASS Library (AID 1347362)
Method in brief: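 Clostridium kluyveri diaphorase in PBS with 0.01% Tween-20 was preincubated 15 min at room temperature in the dark with compounds (11-point series). Resorufin fluorescence (ex 525/20, em 598/25) was read 5 min after adding resazurin/NADH.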

[8] = SDT Cancer Cell Toxicity qHTS against the NCATS CANVASS Library (AID 1347365); note: nearly all actives have a fitted effect of over 60% in size; note: potency is the fitted concentration of half-maximal effect;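 for activity change, negative = cytotoxicity: SDT canine glioma cells 500 per well in 1536 well plates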
Method in brief: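 Cytotoxicity taken from CellTiterGlo ATP luminescence after 72 hr at 37C, 5% CO2. Canine glioma line SDT, 500 cells/well, treated at 11 concentrations; bortezomib dose series as control.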

[9] = G06 Cancer Cell Toxicity qHTS against the NCATS CANVASS Library (AID 1347368); note: potency is the fitted concentration of half-maximal effect; nearly all actives have a fitted effect of over 60% in size
Method in brief: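 Viability measured by CellTiterGlo ATP luminescence after 72 hr at 37C, 5% CO2. Canine G06 glioma cells plated at 500/well. Compounds tested as 11-point qHTS titrations.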

[10] = qHTS for ATAD5 Antagonist screened against the NCATS CANVASS Library (AID 1347370); note: potency is the fitted concentration of half-maximal effect; nearly all actives have a fitted effect of over 65% in size
Method in brief: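 Compounds (11-point) co-dosed with 10 µM 5-FUrd for 16 h at 37 °C onto HEK293T-ATAD5 luciferase reporter cells. Viability measured by CellTiter-Fluor fluorescence, then ATAD5 reporter signal by luminescence.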

[11] = qHTS for activators of Nrf2/ARE signaling pathway screened against the NCATS CANVASS Library (AID 1347391); note: nearly all actives have a fitted effect of over 60% in size; note: potency is the fitted concentration of half-maximal effect
Method in brief: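 Eleven-point qHTS, 16 h treatment of HepG2 cells carrying an ARE-driven beta-lactamase reporter; CCF4 ratio read (405 nm excitation, 460 and 530 nm emission), with CellTiter-Glo ATP luminescence for viability.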

[12] = Viability qHTS for inhibitors of the SERCaMP assay screened against the NCATS CANVASS Library (AID 1347400); note: nearly all actives have a fitted effect of over 70% in size
Method in brief: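 CellTiter-Glo luminescence measured cytotoxicity after 48 h at 37C of compound treatment (11-point series). Cells were SH-SY5Y-GLuc SERCaMP MJH297 derivatives, seeded at 1000 per well 4 h beforehand.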

[13] = Panc-1005 Cancer Cell Toxicity qHTS against the NCATS CANVASS Library (AID 1347349); note: nearly all actives have a fitted effect of over 60% in size
Method in brief: (§2)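 Cells were seeded at 1000 per well, allowed 4 h at 37 degrees C/5% CO2, then pin-treated with an 11-point compound series. After 72 h, viability was read as CellTiter-Glo luminescence following 15min at room temperature.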

[14] = SW1088 Cancer Cell Toxicity qHTS against the NCATS CANVASS Library (AID 1347350); note: nearly all actives have a fitted effect of over 75% in size
Method in brief: as §2

[15] = KB-8-5-11 Cancer Cell Toxicity qHTS against the NCATS CANVASS Library (AID 1347364); settings: activity change, negative = toxicity: at 46.1 µM (top of the series); note: nearly all actives have a fitted effect of over 75% in size
Method in brief: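 Viability read as CellTiter-Glo luminescence after 72 h at 37 °C, 5% CO2. 11-point compound series on 500 KB-8-5-11 cells/well in DMEM/10% FBS. Follow-up plating included 1 uM tariquidar in the medium.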

[16] = qHTS for Inflammasome Signaling Inhibitors: IL-1-beta AlphaLISA screen against the NCATS CANVASS Library (AID 1347379);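 note: human THP-1 cells primed with LPS then triggered with ATP; secreted IL-1B measured as AlphaLISA emission at 615 nm; lower signal means less IL-1B release which is the wanted effect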
Method in brief: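 Secreted IL-1B from human THP-1 cells quantified by AlphaLISA 16 hr after compound addition (final up to 57.5 uM). A 1 hr compound pretreatment preceded inflammasome activation with 250 ng/mL LPS plus 1.25 mM ATP (final).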

[17] = qHTS for inhibitors of Wild type Zika virus screened against the NCATS CANVASS Library (AID 1347396);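 note: ATP luminescence of surviving cells so rescue from viral cell killing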
Method in brief: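 Luminescent CellTiter Glo read-out of virus-induced cytotoxicity, 72 h post-infection, in Vero 766 cells. Compounds were tested at 11 concentrations; uninfected, vehicle-treated wells defined 100% inhibition.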

[18] = Redox Reaction Profiling qHTS: Assay Interference Panel against the NCATS CANVASS Library (AID 1347401); note: potency is the fitted concentration of half-maximal effect
Method in brief: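 Quantitative HTS over an 11-point series was run in HEPES pH 7.3 with 50 mM NaCl, 200 uM DTT and 5 uM resazurin. Initial and 15-min resorufin fluorescence readings were taken.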

[19] = UWB1.289-WTBRCA1 Cancer Cell Toxicity qHTS against the NCATS CANVASS Library (AID 1347354)
Method in brief: as §1

[20] = qHTS for inhibitors of ER calcium dysfunction: SERCaMP assay screened against the NCATS CANVASS Library (AID 1347393); settings: SH-SY5Y GLuc-SERCaMP (Gaussia luciferase released on ER calcium loss) secretion, thapsigargin, luminescence; activity change, negative = inhibition: at 76.6 µM (top of the series) unless noted;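 note: lower secreted reporter signal means inhibitor of ER calcium depletion; nearly all actives have a fitted effect of over 40% in size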
Method in brief: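 qHTS in SH-SY5Y reporter cells: 16 h compound pretreatment, 4 h thapsigargin, then secreted Gaussia luciferase measured by luminescence.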

[21] = target: Nuclear receptor subfamily 1 group I member 3 (Homo sapiens) (UniProt Q14994); test: qHTS for Constitutive Androstane Receptor (CAR) Antagonist screened against the NCATS CANVASS Library (AID 1347372);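 note: cells stimulated with 50 nM CITCO agonist so inhibition reflects antagonism; luciferase from CYP2B6 promoter reporter driven by hCAR in HepG2 cells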
UniProt Q14994, sequence (Q14994 whole entry, looked up): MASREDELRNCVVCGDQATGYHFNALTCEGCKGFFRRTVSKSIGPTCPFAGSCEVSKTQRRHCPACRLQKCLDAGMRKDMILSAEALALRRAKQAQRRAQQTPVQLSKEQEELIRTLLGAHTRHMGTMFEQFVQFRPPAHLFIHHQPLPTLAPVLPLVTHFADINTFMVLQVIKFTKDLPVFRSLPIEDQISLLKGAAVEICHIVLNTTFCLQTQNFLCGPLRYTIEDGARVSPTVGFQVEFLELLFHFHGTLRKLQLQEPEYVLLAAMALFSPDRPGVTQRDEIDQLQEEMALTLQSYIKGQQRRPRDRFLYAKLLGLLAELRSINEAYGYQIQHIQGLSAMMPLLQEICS
Method in brief: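 Cells were seeded and left 4hr to attach, then received compound at 11 concentrations and 50 nM CITCO. Following 24hr incubation, fluorescence viability and luciferase luminescence were read sequentially.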
Tags give direction and shape of the fitted curve.

Structure (SMILES): C[C@]12CC[C@]3(C1)[C@H](CC2=O)CC(OC(=O)c1ccccc1)[C@H]1[C@@](CO)(C(=O)O)CCC[C@@]13C (stereo partly specified)
- Potency [1]: active: 49.3 µM
- Potency [2]: inactive
- Potency [3]: inactive
- Potency [4]: inconclusive [cytotoxic, full curve, poor fit]
- Potency [5]: inconclusive [inhibitor, single point]

Structure (SMILES): CO[C@@H]1[C@H](O)[C@@H](C)O[C@@H](OC[C@H]2/C=C/C=C/C(=O)C(C)C[C@H](C)C(O[C@@H]3O[C@H](C)CC4(OC(=O)O[C@@H]4C)C3O)[C@@H](C)/C=C/C(=O)OC2C)[C@@H]1OC (stereo partly specified)
- Potency [1]: active: 49.3 µM
- Potency [6]: inconclusive [cytotoxic, partial curve]
- Potency [7]: inactive
- Potency [8]: inactive
- Potency [9]: inconclusive [cytotoxic, partial curve, poor fit]
- Potency [10]: inconclusive [inhibitor, single point]
- Potency [4]: inconclusive [cytotoxic, full curve]
- Potency [11]: active: 14.8 µM
- Potency [12]: inactive

Structure (SMILES): C/C(=C\[C@@H](C)CC/C=C/CC/C=C/C(=O)O)[C@@H](O)[C@H](C)C(=O)CCCC1CC(=O)NC(=O)C1
- Potency [1]: inconclusive [inhibitor, partial curve, poor fit]
- Potency [13]: inactive
- Potency [14]: inactive
- Potency [7]: inactive
- Potency [15]: inactive
- Potency [16]: inactive
- Potency [5]: inconclusive [inhibitor, partial curve, poor fit]
- Potency [11]: inactive
- Potency [17]: inactive
- Potency [12]: inactive
- Potency [18]: inconclusive [activator, single point]

Structure (SMILES): O=C1OC(CCO)c2cccc(O)c21 (stereo unspecified)
- Potency [1]: inconclusive [inhibitor, partial curve, poor fit]
- Potency [8]: inconclusive [cytotoxic, full curve]
- Potency [9]: inconclusive [cytotoxic, partial curve]
- Potency [4]: inactive
- Potency [5]: inconclusive [inhibitor, single point]

Structure (SMILES): COC(=O)[C@]1([C@H]2CCC(=O)O2)CC(=O)c2c(O)cc(C)cc2O1
- Potency [1]: inconclusive [inhibitor, partial curve]
- Potency [19]: inactive
- Potency [4]: inconclusive [cytotoxic, full curve]
- Potency [20]: inactive

Structure (SMILES): CN1CC[C@]23c4ccccc4N[C@H]1[C@]21CCN(C)[C@H]3Nc2ccccc21
- Potency [1]: inconclusive [inhibitor, partial curve]
- Potency [21]: inactive
